Experimental data from PMC9939295 (Acta Pharmaceutica Sinica. B, 2022).

B1: recombinant GST-tagged ENO1 (enzyme)
chain: MSILKIHAREIFDSRGNPTVEVDLFTSKGLFRAAVPSGASTGIYEALELRDNDKTRYMGKGVSKAVEHINKTIAPALVSKKLNVTEQEKIDKL[about 350 residues not shown]
B2: recombinant GST-tagged ENO1 R9K (enzyme)
chain: MSILKIHAKEIFDSRGNPTVEVDLFTSKGLFRAAVPSGASTGIYEALELRDNDKTRYMGKGVSKAVEHINKTIAPALVSKKLNVTEQEKIDKL[about 350 residues not shown]

Target: the molecule itself
Assay: cross-linking

Row | Protein | stoichiometry N | binding result
1 | B1 | 2 | 
2 | B2 |  | binds
